Assay results as given in the supplement of paper PMC10338343.
± gives the standard deviation. In all, about 5,500 sequences were measured (“pre-steady-state target cleavage rate”: median about 0.1, highest 2% from about 0.64 on). This is a selection; strong and weak results do not stand in their true shares.

Each sequence was assayed on MIWI (PIWIL1) piRISC loaded with piRNA #2 (30 nt) (assay: pre-steady-state target cleavage rate (min^-1); MIWI and MILI are mouse PIWI proteins and EfPiwi is from a freshwater sponge; tags in brackets are library labels; higher = faster piRNA-guided slicing of the target). Conditions: guide: piRNA #2 5'p-UUAGGUAACCCAGUAGAUCCAGAGGAAUUC; auxiliary factor: 500 nM mouse GTSF1.
Procedure, shortened: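 At 33 °C in HEPES–potassium acetate buffer, a transcribed, DNA-blocked target RNA library […] was exposed for 0–8 or 0–960 min to 1 nM active affinity-purified piRISC carrying a single synthetic guide, with or without 500 nM GTSF1 partner protein. Uncleaved targets were sequenced and normalised to depth and to weakly complementary targets. With three trials pooled and k3 capped at 0.0001 min^-1, a burst-and-steady-state fit produced the pre-steady-state cleavage rate.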

Sequence | pre-steady-state target cleavage rate
CUUAAGGACUGGAUCUACAGGGAUACCUAA | 0.0148 ± 0.0085
CUAAUCCUCUGGAUCUAGUGGGUUACCUAA | 0.214 ± 0.025
CUUAUGCUCUGGUUCUACUGGGUUACCUAA | 0.325 ± 0.031
GAAUUCCUCUGGAUCUACUGGGUUAGGAUA [g6:g30:cont:t1A] | 0.126 ± 0.04
CUUAAGGUCUGGAUCUACUGGCAUACCUAA | 0.00954 ± 0.005
CUAUUCCUGUCGAUCUACUGGGUUACCUAA | 0.551 ± 0.043
CUUAUCCUCUGGAUCUACUGGGUUACCUCAA | 0.337 ± 0.05
GAAUUCCUCUGGAUCUUCUGGGUUACCAAA | 0.294 ± 0.047
CUUAAGGUCUCCUUCUACUGGGUUACCUAA | 0.00435 ± 0.0033
CUUAAGGAGUGGAUCUACUGGGUUACCAAA | 0.0307 ± 0.014
CAAUUCGAGUGGAUCUACUGGGUUACCUAA | 0.407 ± 0.045
CUUAAGCUCUGGCUCUACUGGGUUACCUAA | 0.248 ± 0.027
CAAUUCCUCUGGAUCUACUGGGGUUACCUAA | 0.0623 ± 0.016
CUUAAGGAGAGGAUCUACUGGGUUACAUAA | 0.096 ± 0.02
CAAUUCCUCUGGAUCUACUGGGUUAGCUAA | 0.338 ± 0.071
GUAUUCGUCUGGAUCUACUGGGUUACCUAA | 0.231 ± 0.058
CUUAUCCUCUGGAUGAACUGGGUUACCUAA | 0.234 ± 0.05
GAAUUCCUCUGGAUCUUCUGCGUUACCUAA | 0.272 ± 0.038
GAAUUCCUCUGGAAUCUACUGGGUUACCUAA | 0.341 ± 0.056
GAAUUCCUUUGGAUCUACUGGGUUACCUAA | 0.404 ± 0.042
CUAUUCCACUGGAUCUACUGGGUUACGUAA | 0.481 ± 0.066
CUAUUCCUCAGGAUCUACUGCGUUACCUAA | 0.561 ± 0.069
CUUUUCCUCUGGAACUACUGGGUUACGUAA | 0.48 ± 0.036
CUUAAGGACUGGAUCUACAGGGUUACCUAA | 0.117 ± 0.028

Sequence | pre-steady-state target cleavage rate
CUUAAGGUAUGGAUCUACUGGGUUACCUAA | 0.323 ± 0.035
CUUAUCCUCUGGAUCUCCUGGGUUACCUAA | 0.263 ± 0.048
CUUAAGGACUGGUUCUAGUGGGUUACCUAA | 0.00702 ± 0.0069
CUUAAGGUCGGAUCUACUGGGUUACCUAA | 0.043 ± 0.025
GUAUUCCUCUGGAUCUACUGGGUAACCUAA | 0.053 ± 0.024
GUAUUCCUCUGGAUCUACUGGGUUUCCUAA | 0.161 ± 0.041
CUUAAGCUCUGGAUCUACUGGGUUACCUUA | 0.0905 ± 0.018
CUUAAGGUCUGGACUACUGGGUUACCUAA | 0.0214 ± 0.012
CUUAACCUCUGGUUCUACUCGGUUACCUAA | 0.173 ± 0.018
CUAUUCCUCUGGAUCUACUAGGUUACCUAA | 0.238 ± 0.046
GAAUUCGUCUGGAUCUACUGGGUAACCUAA | 0.142 ± 0.034
CUUUUCCUCACGAUCUACUGGGUUACCUAA | 0.635 ± 0.051
CUUAAGGUCUGGAUCUAGUGGGUAACCUAA | 0.0188 ± 0.0089
CUUAAGGAGAGGUUCUACUGGGUUUCCUAA | 0.00421 ± 0.0042
CUUAAGGAGAGGAUCUACUGGGUUACCUUA | 0.00956 ± 0.0048
CUAUUCCUCAGGAUCUAGUGGGUUACCUAA | 0.194 ± 0.032
GUAUUCCACUGGAUCUACUGGGUUACCUAA | 0.0571 ± 0.028
CUUAUCCUCUGCAUCUACUGGGUUACGUAA | 0.181 ± 0.029
GAAUUCCUCUGGAUCUACUGGGUUACCGAA | 0.361 ± 0.091
CUUUACCUCUGGAUCUACUGCGUUACCUAA | 0.452 ± 0.045
GAAUUCCUGUGGAUCUACUGGGUUAGCUAA | 0.272 ± 0.043
CUUAUCCUCUGGAUGUACUGGGUUACCUUA | 0.355 ± 0.046
CUUUUCCUCUGGAUCUACUGGGUUACCAAA | 0.477 ± 0.052
CUUAAGGUCUGGAUCUACUGGGUCACCUAA | 0.122 ± 0.017

Sequence | pre-steady-state target cleavage rate
CUUAAGGUCUGCAUCUACAGGGUUACCUAA | 0.0962 ± 0.013
GAAAUCCUCUGGAUCUACUGCGUUACCUAA | 0.45 ± 0.059
CAAUUCCCCUGGAUCUACUGGGUUACCUAA | 0.462 ± 0.03
CUUAAGGAGUGCAUCUACAGGGUUACCUAA | 0.00328 ± 0.003
CUUAACCUGUGGAUCUAGUGGGUUACCUAA | 0.156 ± 0.014
CAAUUCCUCUGGAUCUACAGGGAUACCUAA | 0.201 ± 0.029
CAAUUCCCUCUGGAUCUACUGGGUUACCUAA | 0.435 ± 0.054
CAAUUCCUCUGGAUCUACUGGGUUACCCAA | 0.46 ± 0.15
CUUUUCGAGUGGAUCUACUGGGUUACCUAA | 0.317 ± 0.038
CUUAACCUCUGGAUCAACUGGCUUACCUAA | 0.0451 ± 0.0095
CUAUUCCUCUGGAUCUACUGGGUAACCUUA | 0.178 ± 0.044
CUUUACCUCUGGAUCUACUGGGUUACCAAA | 0.312 ± 0.041
CUAUUCCACUGGAUCUACUCGGUUACCUAA | 0.0817 ± 0.018
GAAUUCCUCUUGAUCUACUGGGUUACCUAA | 0.74 ± 0.037
CUUAAGGACUGGAUCUACUGGGUUACCUCAA | 0.0868 ± 0.041
CUUAACCUCUGGAUCUACUGGCUAACCUAA | 0.0121 ± 0.0044
CUUAAGCUGUGGAUCUUCUGGGUUACCUAA | 0.0804 ± 0.03
CUUAAGCACUGGAUCUACUGGGUUAGCUAA | 0.0543 ± 0.008
CUUAAGGAGACCUACUACUGCGUUACCUAA | 0.0036 ± 0.0015
GAAUUGCUCUGGAUCUACUGGGUUACCUUA | 0.0635 ± 0.026
CUAUUGCUCUGGAUCUACUGGGUUACCUUA | 0.124 ± 0.028
CUUAACCUCUGGAUCUACUGGGUUACCUGA | 0.0864 ± 0.026
CUUAACGAGUGGAUCUACUGGGUUACCUAA | 0.22 ± 0.03
CUUAAGGAGACCUAGUACUGGGUUACGAUA [g5:g15:cont:t1A] | < 0.0001
